In the supplement of paper PMC10126150 one finds switch fluorescence ratio data, which are given here for 67 sequences.

Sequences with one replicate were seen in a single cluster, so their values are uncertain.
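Also: ATP exposure 15 min at 22 °C before imaging.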

This series has as its system ATP. Nature of the series: switch fluorescence ratio, 500 uM ATP over buffer (Cy3 cluster intensity, sum of 5 cycles each) (fold (ratio)); higher = stronger signal-on switching upon ATP binding; sequences stand for … in TCGTCGGCAGCGTCAGATGTGTATAAGAGACAGTTTTTTTTTTTTTTTTTTTTTTTTT…TC. The following applies: aptamer strand: ATP DNA aptamer (quencher-CACCTGGGGGAGTATTGCGGAGGAAGG + anchor), 100 nM annealed; ATP concentration: 500 uM; one replicate. In outline: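 Values give the fluorescence ratio for each switch-domain sequence, averaged from per-cluster ratios of summed target-cycle to summed buffer-cycle Cy3 intensity. The Cy3-labelled switching-strand clusters sat on a modified Illumina MiSeq flow-cell, were annealed to 100 nM quencher-labelled ATP aptamer, and were imaged in selection buffer, then after 15 min with 500 uM ATP at 22 °C. Five cycles ran with NaOH stripping and re-annealing between them, and clusters outside 100-1000 RFU were excluded.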
Regarding GTTTACGGGA, the switch fluorescence ratio came out at 1.04.
Turning to GTATGACACT, the switch fluorescence ratio was determined as 1.03.
To TGGGCAGTCA belongs 1.05.
To CGGTTCATAG belongs 1.03; to TTCTGGGCAG, 1.06.
As to GTACTGCCCA, the switch fluorescence ratio is 1.14.
Next, CCATCGGTTG: 0.982; CAATTTAGGT: 1.04.
With TGTCAGCGGG, the switch fluorescence ratio turned out to be 0.974.
To AAGCTTCTCC belongs 1.72.
Next, CTGATCAAGC: 1.13; AGGTCTCCGC: 1.72.
Next, TATCTAGATC: 1.04; CTCGAGAACT: 0.993; CGAGGAAGAC: 2.95.
Consider GCTTGGGG, for which the switch fluorescence ratio came to 0.962.
Next, ATTGTGCGCA: 0.994.
Take TAAGATTGAC: the switch fluorescence ratio came to 0.999.
To CTCAATGTGT belongs 1.01.
To TCCCAGATGC belongs 1.18.
To ACCGTAATCT belongs 1.47; to ATAACCAAGA, 1.08.
As for TTTAATAACA, the switch fluorescence ratio came out at 0.973.
Next, ACCGAGAACC: 0.993.
Next, GGTTTCAACT: 1.02; CGTTATCCAC: 1.07; AAGACGGTTA: 0.984.
Next, CGATTAGGGT: 1.02; TTATTCGTCG: 1.06.
On to ACTCGCGCTA, for which the switch fluorescence ratio amounted to 3.7.
Next, ACATGGCCCC: 1.06; ACTTGAGTTG: 0.995; ACTCGTGCC: 0.946.
With TGGTAAGAC, the switch fluorescence ratio was found to be 1.19.
To GGGGATGCCA belongs 0.955.
To CGATCGCTGT belongs 1.52.
To GAAAACAGCC belongs 1.06; to AGTTGCGTAC, 1.07.
On to GACCTGGTGT, for which the switch fluorescence ratio amounted to 1.6.
Regarding CGGCGAATGC, the switch fluorescence ratio stood at 0.989.
To TAAAGCCCCA belongs 0.965; to GCTGCATAA, 1.02.
To ATATAGATTT belongs 0.988; to ATGTTTCTTA, 0.96; to GCTCAGCGTC, 1.29.
Next, ATAGAAGGTA: 0.978; GGCGCTGGTA: 1.02.
With CTAAACAGCG, the switch fluorescence ratio was determined as 0.978.
ATGTAGACCG: the switch fluorescence ratio worked out at 1.05.
Next, GTGATTTTAA: 0.972.
Regarding AAGCACAATA, the switch fluorescence ratio came to 1.19.
In the case of CAGTAGACTG, the switch fluorescence ratio amounted to 0.954.
Next, GAATCAGCTG: 0.981.
As for GGGCGGATCT, the switch fluorescence ratio is 0.972.
To CCCGGCCTTC belongs 1.05; to GAGAGTGCAG, 1.05.
Next, AGTTGCTAGA: 0.967; CATACCAATT: 1.07; TCTAGTGC: 0.989.
To GGTAACTAC belongs 1.06; to AGGAAGCTTA, 0.995; to GGGCTTCCAT, 1.01.
As to TTCCTGGCTT, the switch fluorescence ratio stood at 1.02.
To ATACCCACAG belongs 1.42; to ACTTCGGACT, 1.06.
For the sequence TGTGAATAGC, the switch fluorescence ratio amounted to 0.998.
To CAGAGATAGT belongs 0.953.
